Measured values: article PMC10726135
Some of the results follow. At the low end of the ranking the order means little. Measured with an extract: partners may take part in the binding.

Molecular target: T1, HNF4alpha8 (COS-7 nuclear extract) (UniProt P41235-5)
T1 sequence: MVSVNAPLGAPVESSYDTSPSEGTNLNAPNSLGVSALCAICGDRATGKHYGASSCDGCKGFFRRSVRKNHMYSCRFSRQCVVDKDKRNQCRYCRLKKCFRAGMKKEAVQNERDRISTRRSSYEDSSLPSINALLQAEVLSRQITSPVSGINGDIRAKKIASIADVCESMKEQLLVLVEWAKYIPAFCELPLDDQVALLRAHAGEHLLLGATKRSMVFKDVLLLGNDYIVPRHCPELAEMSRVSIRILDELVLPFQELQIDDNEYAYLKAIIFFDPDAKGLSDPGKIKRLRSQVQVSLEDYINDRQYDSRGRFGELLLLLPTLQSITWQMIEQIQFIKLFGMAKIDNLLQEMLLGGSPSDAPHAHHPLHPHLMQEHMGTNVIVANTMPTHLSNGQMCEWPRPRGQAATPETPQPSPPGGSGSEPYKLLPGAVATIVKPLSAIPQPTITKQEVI
Assay: protein-binding microarray
Settings: COS-7 nuclear extract on double-stranded Agilent 4x180k PBM; binding buffer, salt, pH and temperature not given; high values mean tight binding; double strand, one strand shown; sequences stand for … in …GCCTAGGGAGATTAGAGTATCGGTCGA

Sequence | binding signal (log2 normalized intensity)
CAACCCACTGTTGCCCCTTCCAAAGTCCAC | 6.39
ATGAGGCAAAGGTCAGGAGTTCCATTTAGC | 3.92
AGGAGACCGAGCAGCTCTTTACAAAGCCCA | -1.26
GAGTCCACGTACTTAACTACTACACTAAAA | -1.04
CTGCAGCTGAGTAGAGGAAAGATAACTAAA | -1.28
CTCTGCGCCCTTGGAATATCCTGCCTAACA | -1.23
AGCAGAACCCAGGGTCACAAGGATCCCATT | -1.39
TGTCAACAGCTCAAGTTATCTGAAGCTCTC | -1.3
GGGGCAATAACCCTAGACACCGGGTGAAGG | -1.34
ACATCTTTAATTATCATCTCTGTGTATAAG | 1.66
TCCAAGGTCACACAGCTAAGAGCCGCAGAG | -1.3
TCCAGGGAACTGTCCACCAAGGAGGTGCTG | -1.35
CGCAGCACACTGCAGCGGCATTCTCTGGTC | -1.31
CTTTTGGCCAGAGTAAGGCGGTTCTTGTCT | 0.56
ACACCAGGCCCTCGGCATCATGCCCTTTGG | 4.63
ACATTCAGATTCCTGAGCCCAGATCCTCTA | -1.36
TCCCTTTAGTGGAGTATAGGAACATGAACT | 2.03
GCTCTAGATCTCAAAGTCCAAATAGCGCTA | 3.83
GGGGCGGTTTTTCCATTGTACTCAGTATGT | 1.93
TGCGGTGAGCATTTGTTTAGGAATTTATCT | -0.414
ATCTCCCAGTTCTTTTGACCTTTGCCTCAT | 8.61
CAAGGCAAGAGAGTCATAAAGGGCAGGAAC | -1.35
GTATGAGATAAGGCTAGTAACACTCACATT | -1.33
CTGGCAGTGAAGGTTCAGTGAAGTAGTGTG | 1.17
AAGTATCTCGGTCAAACCTTTGACCCTTTA | 6.9

Sequence | binding signal (log2 normalized intensity)
CCTTGCCTGGCTACCTCTTAGCTACCCTGT | 0.678
GGACCACGATCAGCCAGCAGGGGGCGCAGA | -1.3
CCCCGCCCCCAGTGCACCTTAATAAGCACA | 4.29
TTTCCATTTTTGCTCCTGCACTTTTGTGCT | 1.01
GCACTTTTGGAGTTTGACCTGGAGCCAGGG | 5.7
CTACTGCCAGCCAGGGCCACCCATCAGTGG | -1.27
GTTACCTTGGGGTCAAAGTACATCCCCTAA | 7.38
GCTGCATTTGTCCGGGTATGTTCTTAAGAT | 1.8
CTGACTTGCAACCTTTGCCCTGTTGTCTTT | 6.07
AGATAAACCAAGCCTGCAGCACCTTGATGC | -1.18
GAGTGAACCTAGTGGCTGTGGAAGTCTGGC | -0.418
TTGGCTGATAAAACAAATCTACAAATGTTT | 0.674
CAGGATTCTTGCTGCAGCTGGGCTATACAA | -1.3
AAATTCCAATATAGCAAAGAGAGTCAAAGT | 1.15
GGGAGGACAAAGTTCTGTCCTTTGTCCCCC | 4.83
CTCCTCCCTCAGGGATCTTTGCACTTGATG | 1.65
GGGCGTGTAGGGAGTGGTTCCCACAGCCCA | -1.33
TGAGGATGGGCAGTCCCTATAGCCTCACTT | -1.3
GCTCTGCATATGCCAACAGGTGCTCTTTAT | 0.904
TAGGCCTCAAGACAAACAATAGATAGGACA | -0.918
TTTTCCTTGGCTGTGCTGCCCTTTGCCCTT | 8.52
GGTGACAAGGAAAACTACACTCTTGCTAAA | -1.22
GATGCTGGGCAGCTTGTGTGCGTTTCCCAG | 0.101
TGGATGGATTCAGATCCAGTGGACTCTCTG | 3.71
TTTGCCATTTGGAGAGAGTTTGGCCCCAGT | 2.83

Sequence | binding signal (log2 normalized intensity)
AGGATGACAAAGAGCAAGTGACCCTCAGAC | 3.47
TCAGAAAGGTCAGCGCTTTGGTAGGCTGTA | 0.135
GCAATGGCTTCACAATTCCTAGCAATTCAA | -1.29
ATGTGTTACACCTGTGTGTACTGGGCAGAT | 1.46
AATGAGTGTGGGACTTGAGGTCTTATCTTT | 1.46
ATCCCTGTTGCCTCATCTGAAAAAAGCTAT | -1.03
AAACAACACACCTTGCCACCCACACTGCAG | -1.22
GCGCCACATTCTGAGCCAGCACTTCGACCT | 2.98
TATTTGTAGCTTCAAACCAGTTATTCCAAG | -1.04
TCTCTCTCCACCTGGAGGGACTTTGTCCCA | 5.66
TTTCTGTAAAGCTTTATTTTGGGGCTGTAT | 0.736
ATAAGCACCCTGCTCCAGCCAGAGGCCTTA | -1.17
CCTTGGGACAGCTGGCCTCATGCCTTATCT | -1.3
CTTATCTGAGGTGCCCTTACATTTTGCTCT | 1.39
AGAGATCAAAGGGGAGGTGGGAAAAGAAAT | -1.37
GTCGCCGTGAGGTTATTTGCAGACTCTGTT | 1.09
CAAAACAACCACTCTTATCAGACAGGATAT | -0.714
GTCCCACAGGGAAAGTATGGGTCAGCCCTG | 1.03
GAAGAAGTTGCTCAGTGTTCCACAGCAAGT | -1.32
ACCAGATCTTACTTTGAGGTGTTCTCTGGG | 1.31
TAGGTTGGAGGAGCTGAACTGTAACCTCAA | 1.39
CCAGTTCCAGGGATGTCTTTTTCTGACCCA | 2.73
TAGTGATTTAGGCTTTTGGGCCCTGTCTGA | 0.78
GAGATGCTGGGTGGCATAGTTGATGTCAAT | 0.654
TGAGAAACCACAGGAGTGCCGTGAGGGGTT | -1.31

Sequence | binding signal (log2 normalized intensity)
CTGAGGTGCTCTCAGATAAGAGATGAGGAA | -1.37
AAGCATGACAAAATAACGAAGGCATTCTTA | -0.858
GTACCTAGGACAAAGCAAACACTCATTTCA | -1.35
ACACTGAGGAAAAGCTGTCTACAAACACAG | -1.3
TATGAGAGAGAGAGAGAGGTGGGCAAAGGT | 1.33
GGGGCCTGAGGAAAGGAAGATGCACATTCC | -1.3
TTCCGGGGGCGGTTTTTCCATTGTACTCAG | 1.95
TAGGTTTTTTTTTTTTTTAACGGTCTGCCC | 2.46
GTTGCCCGCTTGGCCCTCTTCCAAGTGTTC | 1.63
GAAATAAAAGAGCCTGAGCCACTTCACTGG | -1.3
TATGTGCTCACTCCTGGGACAAGGACTTTG | 3.11
TTGGGAGGGAAGAGGCAAGGAAAGATAAAT | -1.07
TCCGAACTATTTGGTGCACAAGAGGGCAGT | 1.23
GGATCCTTGGAGGACCTTGGGTTCATTTTA | 2.86
GAAAAAGCCCAAGAAACTTCAAAGAGTGCA | -1.3
AATAATCTAGAAACCAGTGAGAAAATGGTG | -0.667
CCCTGGTCCAGGCCATGCAACAGCCTCCTC | -1.33
ATCGCCCTTTGAGGAGGCCTTTCCTGACCC | 3.43
CTCCGGTCAAGATCAAGTGGAGCCTCTCCT | -1.22
ATAGCCACTGGGGTCATGGAGCTGGAGGGC | 0.632
GTAACGTGTCAGAGGTCACTCAGCAATAAA | 1.98
TTAGTAACTGACTTTAACTTCAAAGTCCTG | 1.47
TCACAATCACAAATGCCTTCAGGGGCATTT | 0.453
GAGCATATAAAAGCAGTCTACACTAGGAGG | -1.28
TCCGAACCTGCCAAAGAAGAAAACAATGAC | -1.36

Sequence | binding signal (log2 normalized intensity)
TTATCTAAATGGAGTTACTGTTGCTTCGTG | 0.631
TTAGCTATTTGACCTTCGGCCTCAATTATA | 7.29
CCTCTGAGTCCTCTTCCCAACTTGGCCTCA | 1.54
ACTCTGTGAGAAGGGGTAGTGATCCTGGTA | 0.786
TGGCGCTGTTGACCTTGAAATGCCATGTGA | 1.79
ACCTTTAAGCACCCAGAGCCCCACCGTTGT | 2.89
ATCCCCTCCTGGACTTTGGTCTCATGGGCC | 7.4
AAGCAGCATTAGCCTCTATGTCAGGCCATT | -1.43
AAAGTTTCCTCTCCTGCCCTACTCCCTTAA | 2.63
CTTGCTTTGTCACCCAGGCTGAAGTCCAGT | 2.77
GCCCAGAGCCAGGTGTGCTGAGGAAACTGA | -1.18
TCACAATGGGCCCCAGTAAAAACAGTGGGC | -1.09
GAGGCACAGTCTGCTTTCAGAGATGATAAG | -1.31
GCTGACAGCAGAGAGTTTTCCTTGGCTGTG | -1.15
TATTTCAAGAATGCAAAGCCCTGGCTGACC | 1.22
ACCTCTGTCCTTGGCCTCACAGACAGATAG | -1.4
TGTTTATCCTGCCTCCATTAATTAACCTTT | 5.39
ACTCAGTTGAAGTTCCAGAAGACTACAAAT | -1.34
TTGCCCTGTGGTCTAGCTTGTTCTCTCCCC | 2.48
TAAGACTATCTCATGACAGACCTAAGAACT | -1.29
TTTGGGTAGGAATAGAGCTCTAAACCACCC | -1.32
TCACGTTGGGGGTGCTGATGTTAACACAAG | -0.148
AGCAAACCCCAGCTGAACTCACTACCCTAT | -1.26
AGGAGAAGCTGGAAGGACAGCATTCCTGTC | -1.15
CTGCCCTACTGTATATCCTGACACAGGAAG | 0.466

Sequence | binding signal (log2 normalized intensity)
AGTTCTGGGCCAAAGGTCATACCTGTCTAG | 5.96
AATAAATGTCATTTAAGACGAGTGGTTTGA | 0.832
AAAGGTCAGGAATCGCATTGCAAAATCCAT | -1.17
GGGGCTGCTGGCATCTCATTACTGACAGAG | -1.26
CTCCAAATTCCAGGATCCAAGATCCAACTC | -1.29
GAGCTCTGTGTCAAAAATCAGGGACAAAGT | 1.94
CCACACAGCCTGTCAAAGGGAGAAAGACAT | -1.42
TTCAAATCCTTGCTCTGTGGTTTAGTGGTT | 1.93
ACTACATTCTTTGAAGACTAGGCTCCAGAT | -1.26
CCAAGATTGAGGCCAGCAAAGGGCAAGTAA | 1.35
TGCATGCTGCCAAACTGCCCAGCAGAAAAG | -1.34
ACATGAGTAAACAAGCTCTTTAGATAAACT | -1.29
ATGTCTGTAGGTAAGCACAAAGTACAGCTT | 1.48
GAGCTGGGTGGCCCTCTCCCGGGGAGGTCA | 2.68
CCAGAATTGCTTTACGAAGTGTTTGTCAAG | 1.35
CCACACCGAGATAGTAGAGATAGTGATCAA | -0.852
GCTGGAGGGCAAAGGTCAGAGGCTGATTTC | 6.65
AACCCCACACCTCCCTTGCACCAGTTTCTC | 1.98
TACCACCGTATTCCTAGCTCCTAGCACGTT | -1.33
CAGAGGGGTTCCTCAGTAAATGCTGGAGAT | -0.234
